Among all 310,000 compounds or so, about 14,000 (4.5%) showed an effect of 50% or more. Effects have a minus sign here. This is one part of the list.
The compounds below were run against human ether-à-go-go-related gene (hERG) potassium channel (human, UniProt Q12809) (assay: primary screen, population patch clamp on CHO cells stably expressing hERG).
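Further: peak tail current of the secondary pulse compared with the same well before compound.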

Sequence of human ether-à-go-go-related gene (hERG) potassium channel (Q12809 whole entry, looked up): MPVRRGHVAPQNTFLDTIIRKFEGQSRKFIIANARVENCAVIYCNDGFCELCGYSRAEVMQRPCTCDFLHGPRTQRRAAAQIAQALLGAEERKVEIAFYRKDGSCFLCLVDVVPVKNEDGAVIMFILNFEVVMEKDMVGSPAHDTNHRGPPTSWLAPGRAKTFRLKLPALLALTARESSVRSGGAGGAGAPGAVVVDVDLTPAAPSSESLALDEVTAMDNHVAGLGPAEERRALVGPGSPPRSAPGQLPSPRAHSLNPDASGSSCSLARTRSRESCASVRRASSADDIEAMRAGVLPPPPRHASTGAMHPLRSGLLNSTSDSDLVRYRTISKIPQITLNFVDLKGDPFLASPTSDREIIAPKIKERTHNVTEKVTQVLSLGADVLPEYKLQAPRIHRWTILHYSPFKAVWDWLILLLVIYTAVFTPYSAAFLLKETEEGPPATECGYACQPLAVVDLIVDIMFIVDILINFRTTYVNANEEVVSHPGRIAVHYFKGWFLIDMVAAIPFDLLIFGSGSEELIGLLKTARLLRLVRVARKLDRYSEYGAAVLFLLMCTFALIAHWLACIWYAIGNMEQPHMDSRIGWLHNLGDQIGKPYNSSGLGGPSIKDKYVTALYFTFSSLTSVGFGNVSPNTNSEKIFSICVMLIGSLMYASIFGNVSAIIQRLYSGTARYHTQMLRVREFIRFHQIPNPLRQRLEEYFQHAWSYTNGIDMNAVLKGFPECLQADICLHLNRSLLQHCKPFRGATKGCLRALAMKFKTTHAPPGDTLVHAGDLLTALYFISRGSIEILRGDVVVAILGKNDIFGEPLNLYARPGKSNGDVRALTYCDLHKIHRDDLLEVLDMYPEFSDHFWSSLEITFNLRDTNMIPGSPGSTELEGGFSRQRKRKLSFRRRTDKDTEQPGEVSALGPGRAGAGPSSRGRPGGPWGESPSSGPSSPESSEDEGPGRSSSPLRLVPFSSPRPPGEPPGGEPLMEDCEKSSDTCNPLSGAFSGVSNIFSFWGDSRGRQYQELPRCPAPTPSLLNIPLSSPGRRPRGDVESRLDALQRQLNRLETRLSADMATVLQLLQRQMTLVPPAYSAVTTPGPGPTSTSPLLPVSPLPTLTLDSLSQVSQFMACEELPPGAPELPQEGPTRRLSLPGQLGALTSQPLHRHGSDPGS

Question: With `COc1cccc(Nc2nc(N)nc(CCl)n2)c1` as the compound, how does the “hERG current change (%, negative = inhibition) at 10uM” value read?
Answer: 0.476%

Question: `CCc1ccc(Oc2nc([N+](=O)[O-])nn2C)cc1` was tested. Which “hERG current change (%, negative = inhibition) at 10uM” value did it give?
Answer: 5.87%

Question: For `O=C(NCC1CCCO1)C1CCN(S(=O)(=O)c2ccccc2)CC1` (stereo not shown), which “hERG current change (%, negative = inhibition) at 10uM” value is on record?
Answer: 2.93%

Question: For `COc1ccc(OC)c(C2=NO[C@@H]3C(=O)N(c4cc(Cl)ccc4OC)C(=O)[C@H]23)c1`, which “hERG current change (%, negative = inhibition) at 10uM” value is on record?
Answer: 2.53%

Question: With `CCOc1ccc(C(=O)Nc2ccc3c(c2)OCCO3)cc1OC` as the compound, how does the “hERG current change (%, negative = inhibition) at 10uM” value read?
Answer: -0.0473%

Question: How did the “hERG current change (%, negative = inhibition) at 10uM” value turn out when `COc1ccccc1C(=O)/C=C/c1ccc(N2CCCCC2)c([N+](=O)[O-])c1` was run?
Answer: -26.3%

Question: With `COc1ccccc1/C=C(/NC(=O)c1ccc(Cl)cc1Cl)C(=O)O` as the compound, how does the “hERG current change (%, negative = inhibition) at 10uM” value read?
Answer: 22.2%

Question: Which “hERG current change (%, negative = inhibition) at 10uM” value does the source give for `CC1(C)CC(=O)c2cnc(NC(=O)CSC(=S)N3CCCCC3)nc2C1` here?
Answer: -26.2%

Question: For `CC(=O)Nc1ccc(CN2CCN(CC(C)C)C(CCO)C2)cc1` (stereo not shown), which “hERG current change (%, negative = inhibition) at 10uM” value is on record?
Answer: 2.2%

Question: With `Cc1ccc(C(=O)C2=C(O)C(=O)N(Cc3cccnc3)C2c2ccc(OC(C)C)cc2)o1` (stereo not shown) as the compound, how does the “hERG current change (%, negative = inhibition) at 10uM” value read?
Answer: 14.9%

Question: `Cl.O=C(NC(=S)N1CCN(Cc2ccccc2)CC1)c1ccco1` was tested. Which “hERG current change (%, negative = inhibition) at 10uM” value did it give?
Answer: 1.87%

Question: `COC(=O)c1ccc(NC(=O)C2CC(=O)N(c3cc(C)ccc3C)C2)cc1` (stereo not shown) was tested. Which “hERG current change (%, negative = inhibition) at 10uM” value did it give?
Answer: 8.48%

Question: How did the “hERG current change (%, negative = inhibition) at 10uM” value turn out when `Cc1nnc(SCCn2c(Br)nc3c2c(=O)[nH]c(=O)n3C)s1` was run?
Answer: 19.8%

Question: Which “hERG current change (%, negative = inhibition) at 10uM” value does the source give for `COc1ccccc1N1CCN(C(=O)Cn2nnc(-c3cccs3)n2)CC1` here?
Answer: -3%

Question: `Cc1nnc2ccc(-c3cccc(NC(=O)Cc4cccs4)c3)nn12` was tested. Which “hERG current change (%, negative = inhibition) at 10uM” value did it give?
Answer: -25.9%

Question: With `CCc1ccc2[nH]c(=O)c(CN(CCCN3CCOCC3)C(=O)Nc3ccccc3)cc2c1` as the compound, how does the “hERG current change (%, negative = inhibition) at 10uM” value read?
Answer: -54.2%

Question: `O=C(c1ccc(-c2nc3ccccc3s2)o1)N1CCN(c2ccccc2O)CC1` was tested. Which “hERG current change (%, negative = inhibition) at 10uM” value did it give?
Answer: 11.6%

Question: With `Cc1ccc2nc(C3CCN(C(=O)c4ccco4)CC3)[nH]c2c1.Cl` as the compound, how does the “hERG current change (%, negative = inhibition) at 10uM” value read?
Answer: -23.8%

Question: How did the “hERG current change (%, negative = inhibition) at 10uM” value turn out when `COc1ccc(/C(C)=N/NS(=O)(=O)c2cc(C)ccc2C)c(OC)c1` was run?
Answer: -15.3%

Question: How did the “hERG current change (%, negative = inhibition) at 10uM” value turn out when `CCS(=O)(=O)Nc1cccc(-c2cc(-c3ccccc3)c3cc(C)ccc3n2)c1` was run?
Answer: 4.97%

Question: Which “hERG current change (%, negative = inhibition) at 10uM” value does the source give for `Cc1ccc(/C=C/C2=NN(Cc3ccccc3Cl)C(=O)CC2)cc1` here?
Answer: -4.44%

Question: For `COc1ccc(N2CCN(C(C)C(=O)N(C)Cc3ccccc3)CC2)cc1` (stereo not shown), which “hERG current change (%, negative = inhibition) at 10uM” value is on record?
Answer: -17.3%

Question: For `CCc1sc(C(=O)NNC(=O)CNC(=O)c2ccccc2F)cc1C`, which “hERG current change (%, negative = inhibition) at 10uM” value is on record?
Answer: -1.92%

Question: For `O=C(Nc1ccc(F)cc1F)c1noc2c1CCC2`, which “hERG current change (%, negative = inhibition) at 10uM” value is on record?
Answer: -0.989%

Question: For `O=C(O)CC(c1cccc2ccccc12)N1Cc2ccccc2C1=O` (stereo not shown), which “hERG current change (%, negative = inhibition) at 10uM” value is on record?
Answer: 4.25%

Question: How did the “hERG current change (%, negative = inhibition) at 10uM” value turn out when `COc1ccc(C(=O)Nc2nc3ccc4nc(C)sc4c3s2)cc1` was run?
Answer: 9.89%

Question: For `COc1ccc(NC(=O)CN(C)C(=O)Cc2ccsc2)cc1`, which “hERG current change (%, negative = inhibition) at 10uM” value is on record?
Answer: 13.8%

Question: For `CCc1c(C)sc2nc3c(C(=O)N4CCOCC4)cc(C(=O)c4ccccc4O)cn3c(=O)c12`, which “hERG current change (%, negative = inhibition) at 10uM” value is on record?
Answer: -10.7%

Question: `COc1cc(NC(=O)c2nccn2C)cc(C(=O)Nc2cccc(C(F)(F)F)c2)c1` was tested. Which “hERG current change (%, negative = inhibition) at 10uM” value did it give?
Answer: 5.31%

Question: Which “hERG current change (%, negative = inhibition) at 10uM” value does the source give for `CN(C)C(CNC(=S)Nc1cccc(Cl)c1)c1cccnc1` (stereo not shown) here?
Answer: 8.69%

Question: Which “hERG current change (%, negative = inhibition) at 10uM” value does the source give for `O=C(NCc1ccncc1)C1CCCN(S(=O)(=O)Cc2ccccc2)C1` (stereo not shown) here?
Answer: 3.48%

Question: How did the “hERG current change (%, negative = inhibition) at 10uM” value turn out when `Cc1cccc(N=Cc2cc(Br)cc(Cl)c2O)c1` was run?
Answer: 22%

Question: With `CC(C)(C)NS(=O)(=O)c1ccc(OCC(=O)Nc2ccc3c(c2)OCCO3)cc1` as the compound, how does the “hERG current change (%, negative = inhibition) at 10uM” value read?
Answer: -0.883%

Question: Which “hERG current change (%, negative = inhibition) at 10uM” value does the source give for `Cc1oc2c(c1C(=O)NCc1cc(C(=O)O)co1)CCCC2` here?
Answer: 4.24%

Question: Which “hERG current change (%, negative = inhibition) at 10uM” value does the source give for `O=C(NCCc1ccccc1)c1ccc2c(c1)N(Cc1ccccc1)CCS2` here?
Answer: 8.75%

Question: With `Cc1c(Cl)cccc1NC(=O)C1Cc2ccccc2CN1C(=O)c1ccccc1` (stereo not shown) as the compound, how does the “hERG current change (%, negative = inhibition) at 10uM” value read?
Answer: -4.38%

Question: Which “hERG current change (%, negative = inhibition) at 10uM” value does the source give for `CSc1ccccc1OCc1cc(C(=O)NC(C)c2cnn(C)c2)no1` (stereo not shown) here?
Answer: -19.4%

Question: How did the “hERG current change (%, negative = inhibition) at 10uM” value turn out when `Cc1c(Cl)cccc1NC(=O)COC(=O)c1ccc(CN2CCCC2=O)cc1` was run?
Answer: -46%

Question: Which “hERG current change (%, negative = inhibition) at 10uM” value does the source give for `O=C(O)c1cccc(NS(=O)(=O)c2ccc3c(c2)OCCCO3)c1` here?
Answer: 23.3%

Question: How did the “hERG current change (%, negative = inhibition) at 10uM” value turn out when `O=C(CCN1C(=O)C2C3C=CC(C3)C2C1=O)N1CCN(c2cccc(Cl)c2)CC1` (stereo not shown) was run?
Answer: -38.4%

Question: `CCc1ccc(C(=O)COC(=O)CNC(=O)c2cccs2)cc1` was tested. Which “hERG current change (%, negative = inhibition) at 10uM” value did it give?
Answer: -6.77%

Question: For `CCOc1ccc(NS(=O)(=O)c2cc(C(=O)N(CC)CC(=O)NCc3cccs3)ccc2C)cc1`, which “hERG current change (%, negative = inhibition) at 10uM” value is on record?
Answer: -18.5%

Question: `C/C=C(/C)C(=O)Nc1cccc(C2=NOC3(C2)C[C@@H](C(N)=O)N(C(=O)C2(C)CC2)C3)c1` (stereo partly shown) was tested. Which “hERG current change (%, negative = inhibition) at 10uM” value did it give?
Answer: 7.47%

Question: With `NC(=S)Nc1ccc(F)c(F)c1F` as the compound, how does the “hERG current change (%, negative = inhibition) at 10uM” value read?
Answer: -7.17%

Question: For `COc1ccc(C2=NN(c3nc4ccccc4s3)C(=O)C2)cc1`, which “hERG current change (%, negative = inhibition) at 10uM” value is on record?
Answer: 5.36%

Question: Which “hERG current change (%, negative = inhibition) at 10uM” value does the source give for `O=[N+]([O-])c1ccc(OCC2CC(c3ccccc3)=NO2)cc1` (stereo not shown) here?
Answer: 9.63%

Question: `Cc1cc(C)c(C(=O)OCC(=O)Nc2cccc(S(=O)(=O)N3CCCCC3)c2)c(C)c1` was tested. Which “hERG current change (%, negative = inhibition) at 10uM” value did it give?
Answer: -4.25%

Question: `Cc1cc(=O)oc2c3c(cc(OCC(=O)N[C@@H](Cc4ccccc4)C(=O)O)c12)OC(C)(C)CC3` was tested. Which “hERG current change (%, negative = inhibition) at 10uM” value did it give?
Answer: -0.905%

Question: How did the “hERG current change (%, negative = inhibition) at 10uM” value turn out when `Cc1ccc(-c2nc3ccccc3s2)cc1NC(=S)NC(=O)c1cccc2ccccc12` was run?
Answer: -27.1%

Question: How did the “hERG current change (%, negative = inhibition) at 10uM” value turn out when `COc1ccc(N2CCN(C3CCCN(C(=O)c4ccoc4)C3)CC2)cc1` (stereo not shown) was run?
Answer: -18.2%

Question: Which “hERG current change (%, negative = inhibition) at 10uM” value does the source give for `Cc1ccc(CN2CCN(Cc3cc(=O)c4ccccc4[nH]3)CC2CCO)o1` (stereo not shown) here?
Answer: -30.8%

Question: For `CCNC(=O)COC(=O)/C=C/c1cccc(F)c1`, which “hERG current change (%, negative = inhibition) at 10uM” value is on record?
Answer: -10.3%

Question: How did the “hERG current change (%, negative = inhibition) at 10uM” value turn out when `CCOC(=O)c1c(C)noc1-c1ccco1` was run?
Answer: 0.728%

Question: With `Cc1c(C)n(CCc2ccccc2)c2ncnc(NCCCN(C)C)c12` as the compound, how does the “hERG current change (%, negative = inhibition) at 10uM” value read?
Answer: -58%

Question: Which “hERG current change (%, negative = inhibition) at 10uM” value does the source give for `O=C(O)CCc1ccc(-c2ccccc2)n1NC(=O)c1sc2ccccc2c1Cl` here?
Answer: 4.55%

Reference: publication PMC4336329 (PLoS ONE, 2015)
